Screen size: about 52,000 compounds; about 4,300 (8.3%) were called active. No stated cut-off is given here; in the data, active means survival mostly below about 52% (no sharp cut-off); inactive means mostly above about 56%. The list shows a part of the results.

The test system of this assay is DeltatarO mutant. Description: S. aureus survival, RN4220 and DeltatarO strains – OD600, teichoic acid synthesis inhibitors, primary screen (AID 463173). To be noted: S. aureus RN4220 wild type/DeltatarO growth, OD600, 18 h, active compounds read low, screened at 18.75 µg/mL (by protocol).
`CCCC(=O)Nc1cc2nn(-c3ccc(OC)cc3)nc2cc1C`: the survival was inactive: 59%.
As for `Nc1nnc(CC(=O)N2CCCC2)s1`, the figure is inactive: 99%.
As for `CCOc1ccc(NC(=O)NCCN2CCN(c3cc(Cl)ccc3C)CC2)cc1`, the figure is inactive: 54%; as for `O=C(NCCc1ccccc1)c1c[nH]c2ccc(S(=O)(=O)Nc3ccc(F)cc3F)cc2c1=O`, inactive: 72%; as for `COC(=O)Cc1[nH]nc2c1C(c1c[nH]c3ccccc13)C(C#N)=C(N)O2` (stereo not given), inactive: 98%.
To `CCc1ccc2[nH]c(=O)c(CN(Cc3ccco3)Cc3nnnn3Cc3ccccc3)cc2c1` belongs inactive: 85%.
With `CCc1nc(SC)ncc1C(=O)NCc1cccc(Br)c1`, the survival was inactive: 89%.
As for `O=C(Cn1nc(Cc2cccnc2)c2ccccc2c1=O)N1CCN(c2ccccc2F)CC1`, the figure is inactive: 78%; as for `Cc1ccc(Cl)cc1N1CCN(c2nc3ccc(C(=O)c4ccccc4)cc3n3cnnc23)CC1`, active: -4%; as for `Cc1cc(O)c2c(C)c(CC(=O)NCc3ccccc3Cl)c(=O)oc2c1`, inactive: 62%.
Regarding `O=C(NCCSc1c[nH]c2ccccc12)c1ccc(Cl)cc1`, the survival was active: 47%.
As for `O=C(NCCc1ccccc1)c1ccc2c(c1)N(Cc1ccc(Cl)cc1)C(=O)c1ccccc1S2(=O)=O`, the figure is inactive: 89%; as for `CCN(c1ccccc1C)S(=O)(=O)c1nnc(NC(=O)c2ccc(OC)c(OC)c2)s1`, active: 40%.
For the molecule `Cc1ccc(C2=Nc3ccccc3N=C(c3ccc(F)cc3)C2)c(O)c1`, the survival was inactive: 60%.
To `CCCCn1c(CCCN2C(=O)c3ccccc3C2=O)nc2ccccc2c1=O` belongs inactive: 75%; to `CCOc1ccc(NC(=O)CSc2nc3ccsc3c(=O)n2CCC(C)C)cc1`, inactive: 88%; to `Cc1ccc(NC(=O)C2CCN(S(=O)(=O)c3ccc4c(c3)CCCC(=O)N4)CC2)cc1N(C)C`, inactive: 120%.
On to `COc1ccc(OC)c(NC(=O)C(C)n2c(=O)c(-c3ccccc3NC(C)=O)nc3ccccc32)c1` (stereo not given), for which the survival is inactive: 103%.
As for `COc1ccc(-c2nc(CSCC(=O)NCCC(C)C)c(C)o2)cc1OC`, the survival was inactive: 68%.
To `COc1ccccc1NS(=O)(=O)c1cn(C)c(C)n1` belongs active: 37%; to `COc1ccc(N2CC(NC(=O)COc3cccc(C)c3)CC2=O)cc1OC` (stereo not given), inactive: 71%; to `COc1ccccc1N(CC(=O)Nc1ccccc1C(F)(F)F)S(=O)(=O)c1ccc(C)cc1`, inactive: 64%.
On to `Cc1ccc(C)c(N2CCN(C(=O)Cn3nc(C)c4sc5ccccc5c4c3=O)CC2)c1`, for which the survival was inactive: 55%.
As for `COC(=O)c1ccc(Cc2ccccc2)o1`, the figure is inactive: 86%; as for `O=C1C(c2nc3ccccc3[nH]2)=C(O)c2ccccc21`, inactive: 74%; as for `Cc1oc2ccc(O)c(CN3CCCCCC3)c2c1C(=O)Nc1cccc(C(F)(F)F)c1`, inactive: 46%.
As for `O=C(CSc1cn(CC(=O)N2CCCCC2)c2ccccc12)NCc1ccccc1Cl`, the figure is inactive: 74%; as for `CC(C)c1ccc(NC(=O)c2cc3c(=O)[nH]c4ccccc4c3n2C)cc1`, inactive: 70%; as for `CCN1C(=O)c2ccccc2S(=O)(=O)c2ccc(C(=O)NCc3ccccc3OC)cc21`, inactive: 85%.
As for `CCOC(=O)C1=C2SCCN2C(=O)C(C#N)C1(C)C` (stereo not given), the figure is inactive: 86%; as for `CCOC(=O)c1[nH]c2ccc(C)cc2c1NC(=O)OC`, inactive: 95%; as for `Cc1nn(-c2ccccc2)c(Cl)c1/C=N/NC(=O)c1cccnc1`, inactive: 96%.
Turning to `O=C(CN1C(=O)c2cccnc2Sc2ccccc21)Nc1cc(F)ccc1F`, the survival is inactive: 79%.
As for `Cc1ccc(-n2nc(C)c3c(C(=O)NCCc4ccc(S(N)(=O)=O)cc4)cc(C)nc32)cc1`, the figure is inactive: 118%; as for `COC(=O)Cn1c(O)c(N=NC(=O)C2COc3ccccc3O2)c2ccccc21` (stereo not given), inactive: 69%; as for `CCC1CN(C(=O)N2CCC(C(=O)NCc3cccc(F)c3)CC2)c2cc(C)ccc2O1` (stereo not given), inactive: 79%.
As for `COc1ccc(C2/C(=C(\O)c3ccc(C)cc3)C(=O)C(=O)N2CCC(=O)O)cc1` (stereo not given), the figure is inactive: 88%; as for `O=C1C2C3c4ccccc4C(c4ccccc43)C2C(=O)N1O` (stereo not given), inactive: 99%.
To `COc1ccc(OC)c(CNC(=O)NCc2noc3ccc(C)cc23)c1` belongs inactive: 104%.
For the molecule `Cc1c(N2C(=O)CSC2=S)c(=O)n(-c2ccccc2)n1C`, the survival is inactive: 82%.
As for `Cc1cc(Nc2cccc(Cl)c2)nc2ccc(NC(=O)COc3ccc(Cl)cc3)cc12`, the figure is inactive: 107%; as for `Cc1cccc(NC(=O)Cn2c(SCC(=O)NCc3ccccc3)nc3ccccc32)c1C`, inactive: 119%; as for `O=C(c1cnn(-c2ccc(F)cc2)c1-n1cccc1)N1CCN(c2ccccc2)CC1`, inactive: 93%.
To `CNC(=O)CCC(=O)Nc1ccc(C)cc1` belongs inactive: 104%; to `CCOc1ccc(-c2cn3nc(CC(C)C)sc3n2)cc1`, inactive: 116%; to `CCCCN(C)CCCNC(=O)c1cn(CC)c2ccc(S(=O)(=O)N3CCc4ccccc4C3)cc2c1=O`, inactive: 95%.
As for `COc1ccc(NC(=O)Nc2cc(C(=O)NCc3ccc(C)cc3)ccc2N2CCCC2)cc1`, the figure is inactive: 99%; as for `C1=CCC(CN2CCNCC2)CC1` (stereo not given), inactive: 98%; as for `COc1ccccc1CNC(=O)c1cc(S(=O)(=O)N2CCCC(C)C2)cn1C` (stereo not given), inactive: 93%.
Regarding `CCc1ccc(NC(=O)CC2C(=O)N(c3ccc(F)cc3)C(=O)N2Cc2ccc(F)cc2)cc1` (stereo not given), the survival is inactive: 87%.
Consider `Cc1ccc(-n2nc(C)c3c(C(F)(F)F)cc(-c4cccnc4)nc32)cc1C`, for which the survival was inactive: 42%.
As for `Cc1ccccc1-c1nc(CN2CCC(C(=O)NC(C)C)CC2)c(C)o1`, the figure is inactive: 86%.
Consider `CCCCc1nn2c(=O)cc(COC(=O)CNC(=O)COc3ccc(C)cc3)nc2s1`, for which the survival is inactive: 80%.
In the case of `CCOC(=O)C1=C(CN2CCN(c3ccc(C)cc3C)CC2)NC(=O)NC1c1ccc(OC)cc1` (stereo not given), the survival was inactive: 97%.
As for `COc1ccc(N2CCN(CC(O)COc3c(OC)cccc3OC)CC2)cc1` (stereo not given), the figure is inactive: 71%; as for `CCOc1ccc(NC(=O)c2c(NCc3cccs3)sc3c2CCC(C)C3)cc1` (stereo not given), inactive: 129%; as for `COc1ccc(C)cc1NS(=O)(=O)c1ccc2oc(=O)c3ncn(C)c3c2c1`, inactive: 77%.
To `CCN(CC)c1ccc(C2C(C(N)=O)=C(C)Nc3nc(SCc4ccccc4Cl)nn32)cc1` (stereo not given) belongs inactive: 154%; to `CCOC(=O)c1ccc(N=C2SC(C(=O)Nc3ccccc3)CC(=O)N2C)cc1` (stereo not given), inactive: 60%; to `O=C(NCCSCc1ccccc1)C1CCN(S(=O)(=O)Cc2ccccc2)CC1`, inactive: 66%.
To `COc1ccc(CNC(=O)C2(c3cccs3)CCOCC2)cc1` belongs inactive: 72%.
In the case of `COc1ccc(CC2=C(C)C(=O)N(c3ccc(OC)cc3)C2=O)cc1`, the survival was inactive: 90%.
As for `Cc1cccc(-n2c(SCC(=O)Nc3ccc(C)c(C)c3)nc3n[nH]c(C)c3c2=N)c1`, the figure is inactive: 87%.
As for `CCOC(=O)c1ccccc1NC(=O)c1c(C)oc2ncnc(N3CCOCC3)c12`, the figure is inactive: 88%.
As for `COc1cccc(-n2c(=O)c3c(C)c(C)sc3n(Cc3ccccc3C#N)c2=O)c1`, the figure is inactive: 65%; as for `CCOc1ccc(CNC(=O)c2cc3ccccn3n2)cc1`, active: 52%.
As for `CCc1ccc(CCC(=O)Nc2ccc(C)c(C)c2)o1`, the survival is inactive: 76%.
To `COc1ccc(-c2nc3sc(CCNC(=O)C(=O)Nc4ccccc4C#N)c(C)n3n2)cc1` belongs inactive: 77%; to `CC(C)c1ccc(NC(=O)c2ccc(CN3CC(=O)N4CCCCC4C3=O)cc2)cc1` (stereo not given), inactive: 77%; to `Cc1cccc(NC(=O)Cn2c(=O)n(Cc3ccccc3)c(=O)c3oc4ccccc4c32)c1C`, inactive: 72%.
`Cc1ccc(CNC(=O)c2c(Nc3c(C)cccc3C)sc(C(=O)c3ccccc3)c2N)cc1`: the survival was inactive: 60%.
To `CCOc1ccc(C2C(C(N)=O)=C(C)Nc3nc(SCc4ccccc4F)nn32)cc1` (stereo not given) belongs inactive: 67%; to `COc1ccccc1C(=O)Nc1ccc(C(=O)OCc2cc(=O)n3c4c(sc3n2)CCCC4)cc1`, active: 37%; to `CC(C)NC(=O)C1CCN(C(=O)C(C(=O)c2ccccc2)n2cc(Cl)ccc2=O)CC1` (stereo not given), inactive: 99%.
As for `COc1ccccc1NC(=O)c1cnn(-c2ccccc2)c1-n1cccc1`, the figure is inactive: 93%; as for `COc1cccc(-c2nn(C)c3sc(C(=O)NCc4ccc(OC)cc4OC)cc23)c1`, inactive: 68%.
As for `COc1ccc(CC(=O)NCC(c2cccs2)S(=O)(=O)c2ccc(F)cc2)cc1` (stereo not given), the figure is inactive: 73%; as for `Cc1ccc(CNC(=O)c2c(Nc3ccccc3C)sc(C(=O)c3ccc(F)cc3)c2N)cc1`, active: 20%.
Turning to `O=C(CN1CCN(Cc2ccccc2F)C1=O)NCc1ccccc1`, the survival was inactive: 120%.
To `Cc1ccc(C(=O)N(Cc2ccco2)c2ccccn2)cc1` belongs inactive: 58%.
To `CCOc1ccccc1NC(=O)C1=C(C)Nc2ncnn2C1c1ccco1` (stereo not given) belongs inactive: 83%.
To `COc1cc(NC(=O)c2nn(C)c3c2COc2ccccc2-3)cc(OC)c1OC` belongs inactive: 66%; to `O=C(CCn1c(=O)c2ccccc2n(CC(=O)Nc2ccc(F)cc2)c1=O)NCCc1ccccc1`, inactive: 85%.
For the molecule `COc1ccc(CCNC(=O)c2ccc(Cn3c(SCc4ccccc4)nc4cccnc43)cc2)cc1`, the survival was inactive: 92%.
To `CC(C)c1cc(-c2nc(-c3ccc(Cl)cc3)no2)n[nH]1` belongs inactive: 70%; to `Cc1cccn2c(=O)c(C(=O)N3CCN(c4ccccc4)CC3)cnc12`, inactive: 49%.
On to `COc1cc(Nc2nc(-c3ccc(OC)c(OC)c3)nc3ccccc23)cc(OC)c1`, for which the survival was active: -2%.
To `Cc1ccc(C(=O)c2c(N)c(C(=O)Nc3cccc(C(F)(F)F)c3)c3ccccn23)cc1` belongs inactive: 110%.
As for `Cc1ccc(-n2c(=O)c3oc4ccccc4c3n(Cc3cccc(F)c3)c2=O)cc1C`, the figure is inactive: 60%.
As for `COc1ccccc1Nc1c2c(nc3ccc(NC(=O)c4ccc(N(C)C)cc4)cc13)CCCC2`, the figure is inactive: 89%.
